Six compounds from PubChem BioAssay AID1963860 (Molecular Pharmacology Branch, DTP, NCI, 2024) can be followed below.

The structures appear in SMILES notation. Certain results were filed several times, with different values. They are shown here; other results are not. There may be further records. Results that share an entry are repeated measurements in other runs, samples, wells, individuals or studies. Marks such as [2022-09] give the month of the run. Counts like (3×) stand for listed records that agree. A value given as a limit tells only on which side of the number the result lay.

In this assay the test system is CN0375-F725-PDC KRAS spheroid viability. Description: Anticancer human tumor CN0375-F725-PDC patient-derived colon carcinoma cell line growth inhibition [KRAS2]. To be noted: spheroids with HUVEC and MSC; for viability, T/C: stronger effect = lower value; for IC50: compound alone. From the text: Multicellular complex tumor spheroid response to RAS pathway inhibitors in combination with a targeted agents in patient-derived cell lines with oncogenic KRAS variants from multiple cancer types
A high-throughput screen of multi-cell type tumor spheroids was designed to identify active combinations of targeted small molecules and KRAS pathway inhibitors. Complex spheroids include a stromal component modeled by human endothelial cells (HUVEC) and fibroblasts modeled by human mesenchymal stem cells (MSCs). The concentration ranges selected for each drug and investigational agent were based upon clinically achievable concentrations if the clinical Cmax of the agent was known.
Compounds. The drugs and investigational agents: BI-3406 (NSC825286), BAY-293 (NSC824723), batoprotafib (TNO155; NSC825523), sotorasib (AMG 510; NSC818433), MRTX1257 (NSC819558), elimusertib (BAY 1895344; NSC800525), molibresib (GSK525762; NSC774829), temuterkib (LY3214996; NSC803410), venetoclax (NSC766270), alisertib (NSC759677), olaparib (NSC753686), talazoparib (NSC767125), erdafitinib (NSC781556), ipatasertib (NSC767898), cabozantinib (NSC761068), nintedanib (NSC756659), abemaciclib (NSC768073), docetaxel (NSC628503), trametinib (NSC758246), and sapanisertib (NSC764658) were obtained from the National Cancer Institute (NCI) Developmental Therapeutics Program Chemical Repository. The FDA-approved anticancer drug set is available from the Developmental Therapeutics Program. […] The stock solutions were prepared in dimethyl sulfoxide (DMSO, Sigma-Aldrich, St. Louis, MO, cat. D2650) at 800-fold the tested concentration and stored at -70 degrees C prior to their use. All drugs and investigational agents were tested over a range starting from a high concentration at or near the clinical Cmax and decreasing in half-log increments. If the clinical Cmax for an agent had not been determined, the highest concentration tested was 10 microM.
Cell Culture. All cells were maintained in an incubator at 37 degrees C and 5% CO2 with 95% humidity. The PDC lines were cultured according to standard operating procedures established by the NCI PDMR (https://pdmr.cancer.gov/sops/default.htm). Briefly, all PDCs were thawed and cultured in Matrigel-coated flasks prepared with a working solution of 1X Ham's F-12 nutrient mix, without supplementation (Invitrogen, Waltham, MA, cat. 11765054), 100 U/mL penicillin-streptomycin (Invitrogen, cat. 15140122), and 2.5% Matrigel (Corning Inc., Corning, NY, cat. 354248) for the first three passages. All PDCs were cultured in complete DMEM/F-12 media containing advanced DMEM/F-12 (Invitrogen, cat. 12634028), 4.9% defined fetal bovine serum, heat inactivated (HyClone Laboratories Inc., Logan, UT, cat. SH30070.03HI), 389 ng/mL hydrocortisone (Sigma-Aldrich, cat. H4001), 9.7 ng/mL human EGF recombinant protein (Invitrogen, cat. PHG0313), 23.4 microg/mL adenine (Sigma-Aldrich, cat. A2786), 97.3 U/mL penicillin-streptomycin (Invitrogen, cat. 15140122), 1.9 mM L-glutamine (Invitrogen, cat. 25030081), and 9.7 microM Y-27632 dihydrochloride (Tocris Bioscience, Bristol, United Kingdom, cat. 1254). The PDCs were cultured in complete DMEM/F12 media without 9.7 microM Y-27632 dihydrochloride for at least two passages prior to the screen. The established cell line HOP-62 was cultured in RPMI 1640 medium, HEPES (Invitrogen, cat. 22400105) with 10% defined fetal bovine serum (HyClone Laboratories Inc., cat. SH30070.03) and 2 mM L-glutamine (Invitrogen, cat. 25030081). The pooled donor HUVEC were cultured in endothelial cell growth medium 2 (PromoCell, Heidelberg, Germany, cat. C-22011) and the hMSC were cultured in mesenchymal stem cell growth medium 2 (PromoCell, cat. C-28009). For all experiments, HUVEC and hMSC were used at passages </=5, while the malignant cell lines were used at passages </=15. […]
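Note: spheroids exposed to agents for 7 days.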

In general, viability, T/C refers to the ratio of treated to control. For orientation: IC50 means the concentration that inhibits the measured activity by half. Consider `COc1cc2nc(C)nc(NC(C)c3cc(N)cc(C(F)(F)F)c3)c2cc1OC1CCOC1` (configuration not stated), for which the viability, T/C (compound alone 10 µM) was 64.5, 70.9, 79.8, 19.1, 18.1, 11.3, 12, 17.2, 18.2, 11.8, 15.4% [2021-08] and 12.9, 14.3, 12.7, 21.6, 13.8, 18.2% [2021-09]. Also, the IC50 (run of 08/19/2021) is on record as > 10 µM, 5.64 µM, 5.74 µM, 5.45 µM.

As to `CNCc1ccccc1-c1csc(C(C)Nc2nc(C)nc3cc(OC)c(OC)cc23)c1` (configuration not stated), the viability, T/C runs as follows: (compound alone 1 µM) 93.5, 94.1, 83.4, 92.4, 50.2, 62.6, 47.3, 55.8, 34.4, 49.5, 55% [2021-08] and 67.1, 65.6, 65.5, 69.9, 52, 58.8% [2021-09]; (compound alone 3.16 µM) 100, 0.63, 0.66, 0.45, 0.73, 0.69, 0.29, 0.27, 0.22, 0.26, 0.28% [2021-08] and 0.48, 2.07, 0.73, 0.6, 0.28, 0.39% [2021-09]. For the same compound, the IC50 (run of 08/19/2021) is 5.57 µM, 1.72 µM, 1.59 µM, 1.7 µM, 974 nM, 1.26 µM.

For `COC(=O)c1ccc2c(C(=Nc3ccc(N(C)C(=O)CN4CCN(C)CC4)cc3)c3ccccc3)c(O)[nH]c2c1`, for the setting “compound alone 3.16 µM”, the viability, T/C is on record as 58.6, 64.4, 30.1, 45.6, 49.5%.

On to `CC1OCC2(CCN(c3cnc(Sc4ccnc(N)c4Cl)c(N)n3)CC2)C1N` (configuration not stated), for which the viability, T/C (compound alone 1 µM) is 94.8, 95.1, 104, 82.8, 86.4, 88, 87.4, 84.1, 82.5, 87.5% [2021-08] and 84.5, 85.3, 90.8, 76.3, 78.3, 79, 77.6, 80.3, 85.2% [2021-09]; the viability, T/C (compound alone 10 µM) was 71.3, 91.5, 74.7, 70.2, 63.3, 66.3, 65.3, 71, 64.2, 68.5, 72.8% [2021-08] and 65.5, 65.8, 67 (2×), 65, 63.4, 65.6, 69.9, 66.3% [2021-09].

On to `CC1(C)CCC(CN2CCN(c3ccc(C(=O)NS(=O)(=O)c4ccc(NCC5CCOCC5)c([N+](=O)[O-])c4)c(Oc4cnc5[nH]ccc5c4)c3)CC2)=C(c2ccc(Cl)cc2)C1`, for which the IC50 is recorded as 6.01 µM, 4.34 µM, 5.85 µM, > 10 µM. In addition, the viability, T/C (compound alone 10 µM) is listed as 40.1, 22, 32, 56.3, 54%.

With `C=CC(=O)N1CCN(c2nc(OCC3CCCN3C)nc3c2CCN(c2cccc4cccc(C)c24)C3)CC1CC#N` (configuration not stated), the viability, T/C (compound alone 3.16 µM) is 108, 19.1, 25.4, 26.4, 19, 21.9, 3.49, 19.4, 8.94, 4.44, 26.1% [2021-08] and 29.4, 38.6, 32.2, 28.7, 22.1, 26.1% [2021-09]. The IC50 (run of 08/19/2021) is on record as > 3.16 µM, 1.95 µM, 2.14 µM, 2.13 µM, 1.88 µM, 1.91 µM.
